Source: PubChem BioAssay AID686978 (National Center for Advancing Translational Sciences (NCATS), 2013)
The whole screen tested about 420,000 compounds, of which about 64,000 (15%) were called active. Inconclusive means that the source gave no clear call. Such entries were picked first, then a sample of the others. Calls come from the whole dose curve; as a rule, active = well fitted inhibition curve with a large enough effect; inconclusive = small, poorly fitted or top-dose-only effect; inactive = flat fitted curve, though single readings scatter. No potency is given beside an inconclusive call; the fits are too rough.

Assay: qHTS for Inhibitors of human tyrosyl-DNA phosphodiesterase 1 (TDP1): qHTS in cells in absence of CPT; note: nearly all actives have a fitted effect of over 55% in size
Conditions: DT40 Tdp1-/- hTDP1 cells, no CPT, ATP luminescence, 48 h; activity change, negative = growth inhibition: at 46.2 µM (top of the series) unless noted
Method in brief: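 DT40 Tdp1-/-;hTDP1 cells, no CPT (DMSO vehicle only), 400 cells/well; compounds pin-transferred; ≥48 hr, 37 °C; CellTiter-Glo 30 min RT dark, luminescence read.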
% is set by controls: 0 for no effect and ±100 for the full control effect; potency is the fitted concentration of half-maximal effect; tags give direction and shape of the fitted curve.

SMILES	activity change, negative = growth inhibition	Potency
Cc1c(C)n(C)c2ccc(C(=O)NCCN3CCOCC3)cc12	inactive: 27.8%	–
COc1ccc(C(=O)O/N=C(\N)c2ccc(OC)c(OC)c2)c(OC)c1	–	inconclusive [inhibitor, single point]
O=C(Nc1ccccc1)c1ccc(S(=O)(=O)NCc2ccco2)cc1	–	inconclusive [inhibitor, partial curve, poor fit]
CCN1C(=NCCc2cccnc2)N[C@@H](c2ccccc2)[C@H](C(=O)OC)[C@H]1C	inactive: -24.1%	–
COC(=O)CCCC(=O)N1CCCC(C(=O)c2ccc(-c3ccccc3)cc2)C1 (centres undefined)	–	inconclusive [inhibitor, single point]
CC(C)N1CCC(C)(C(=O)Nc2cccc(Oc3ccccc3)c2)C1 (centres undefined)	–	inconclusive [inhibitor, single point]
CC(C)(C)c1cc(NCCCn2ccnc2)n2ncc(-c3ccccc3)c2n1	–	inconclusive [inhibitor, single point]
O=c1[nH]c(C(F)(F)F)nc2c1nc1n2CCC1	inactive: -8.07%	–
Cc1ccc(-c2cc(C(F)F)n3ncc(C(=O)N4CCN5CCCC5C4)c3n2)cc1 (centres undefined)	–	inconclusive [inhibitor, single point]
COc1cccc(-c2nn(-c3ccccc3)cc2/C=C\C(=O)c2cccs2)c1	inactive: -27.9%	–
N#Cc1ccccc1NC(=O)C(=O)NCC(c1cccnc1)N1CCc2ccccc2C1 (centres undefined)	–	inconclusive [inhibitor, single point]
CC(=O)Nc1ccc(S(=O)(=O)Nc2cccc(C(=O)NC(C)(C)C)c2)cc1	–	inconclusive [inhibitor, single point]
NC(=O)Cc1nc(-c2ccc([N+](=O)[O-])cc2)cs1	–	inconclusive [inhibitor, partial curve]
c1csc(CNc2nc(-c3cccs3)nc3ccccc23)c1	inactive: -9.88%	–
O=C(c1ccc(S(=O)(=O)N2CCCCC2)cc1)N1CCCC(C(F)(F)F)C1 (centres undefined)	–	inconclusive [inhibitor, partial curve, poor fit]
CCCCN(C)c1ncnc2c1cnn2-c1cccc(Cl)c1	–	active: 16.4 µM
CN1[C@@H]2CC[C@H]1CC(OC(=O)c1c[nH]c3ccccc13)C2 (some centres undefined)	–	inconclusive [inhibitor, partial curve, poor fit]
COc1cc(CNc2nc3ccccc3[nH]2)cc(OC)c1OC	–	inconclusive [inhibitor, full curve, poor fit]
O=C(Nc1cccc(F)c1)N1C2CCC1CC(O)(c1cccnc1)C2 (centres undefined)	inactive: -5.57%	–
